# Test results as given in the supplement of paper PMC10126150.
# Sequences with one replicate were seen in a single cluster, so their values are uncertain.
# Tested on: ATP
# Test: switch fluorescence ratio, 500 uM ATP over buffer (Cy3 cluster intensity, sum of 5 cycles each) (fold (ratio)); higher = stronger signal-on switching upon ATP binding; sequences stand for … in TCGTCGGCAGCGTCAGATGTGTATAAGAGACAGTTTTTTTTTTTTTTTTTTTTTTTTT…TC
# Conditions: aptamer strand: ATP DNA aptamer (quencher-CACCTGGGGGAGTATTGCGGAGGAAGG + anchor), 100 nM annealed; ATP concentration: 500 uM; one replicate
# Method in brief: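 Five buffer/ATP imaging cycles were run on Cy3-labelled switching-strand clusters on a modified Illumina MiSeq flow-cell, with NaOH stripping and re-annealing between cycles. In each cycle, clusters annealed to 100 nM quencher-labelled ATP aptamer were imaged in selection buffer, then after 15 min with 500 uM ATP at 22 °C. Per cluster, the fluorescence ratio is summed target-cycle over summed buffer-cycle Cy3 intensity, averaged per switch-domain sequence. Only clusters within 100-1000 RFU were kept.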
# 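Further: ATP exposure 15 min at 22 °C before imaging.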
row,Sequence,switch fluorescence ratio
1,ACCCAGAGTC,1.08
2,TGTTCCGGA,0.989
3,TACCTTGA,1.08
4,GACTTTTGAC,1.02
5,TACGTCCCCA,1.13
6,GATGGCAACG,1.03
7,AGTGAGTTGA,1.01
8,TGCCGCAGTT,1.33
9,CTTGTTACTT,0.991
10,AGTATCATAG,0.965
11,GCCTAAGATT,0.917
12,TAGCCACGTC,1.03
13,TGGGACATC,0.984
14,ACGGCGCG,0.96
15,TCACTGAGGA,0.996
16,AGAGCAACCG,1
17,GACATCTCCG,1.07
18,ATACAGATCT,1.02
19,GAAGTGGTGC,1.12
20,GGAACATGT,0.965
21,GCTAGGTACT,1.04
22,TACATAGCCG,1.15
23,CGAGTAGTTA,1.02
24,GCCTATGGCT,0.999
25,GAATGTAGAT,0.988
26,TTGAAAAGCG,1

row,Sequence,switch fluorescence ratio
1,AAAGTCTTGC,1.07
2,TGTGTTCGAC,0.991
3,CGCTTGATCC,1.09
4,CTAGTACGCA,1.08
5,AAGCAAATAG,2.14
6,AAAGGATCTG,1.03
7,CCTGGCGTTT,1.04
8,ACTGAGACGT,1.01
9,GAGTGGTAGT,0.962
10,AGACTCCTGG,1.04
11,TTCTATACAG,0.999
12,CGGGGGGTGA,1.07
13,AAGGGAATCA,1.04
14,GACACAAGTC,1.01
15,CTCCAAAGCT,1.41
16,GAATTGACA,1.03
17,GACTGGTTAA,1.01
18,TGATGTCGGA,0.965
19,TCTGGCTTTA,1.01
20,TCCCCCCGGC,1.46
21,CGTCATCCTT,0.963
22,TAGCCCCAGT,1.2
23,TCTGATCTAT,1.01
24,GCTTTTAGGG,0.998
25,GCGGTTTATC,1
26,GAATAAGGTG,1.28

row,Sequence,switch fluorescence ratio
1,GAGCTGAGGA,1.03
2,CACCCAGCA,1.32
3,ATTGCGTGGG,1.07
4,TTAAGTGGCG,0.908
5,AAAATTCCCG,1.07
6,TTAAGTGTTG,1
7,CGTACGACTG,1.01
8,AGGCAATGAT,1.1
9,CTCGGAAAGG,0.983
10,GGTAGGGCAC,1.05
11,CGAATCAATA,1.9
12,ACTGGAACCC,1.12
13,GAACCTTTCT,3.03
14,CCAGGACTCT,0.999
15,TGGTGGGCCA,1.01
16,AAAGAGACGT,0.998
17,GCCTTTGTTA,0.968
18,TGGGGGCTG,1.09
19,GCCGACAGCA,1.21
20,AAGATCTGTT,1.02
21,GATATCGTA,0.989
22,CAATGAACTC,1.01
23,GTTTACACGG,1
24,TTTTACGAAT,1.04
25,TTACCGGGCG,1.01
26,CTTATTGAG,1.03

row,Sequence,switch fluorescence ratio
1,CGTTCGTGCT,0.997
2,TAGTATTCCA,0.972
3,AGACGCGCCT,1.01
4,AGGAATGTAG,0.974
5,AGAGATATTG,0.984
6,GATATTTAAC,1.07
7,AAAGAAAGAC,1.04
8,GGAAGGGCGT,1.02
9,GCTTTGGCG,1.01
10,CGGAGCAGCG,1.24
11,GCCATATT,0.975
12,ATTTCCGCTT,1.79
13,CTTTACCTTG,0.983
14,TTGTACGCAC,1.79
15,CAACAAACGA,1.2
16,TGGCTCAGAC,1
17,AGTATTACTC,1.11
18,CGGCAGTTTG,1.02
19,CGGATGTGGA,1.06
20,TTACCCCGAG,1.3
21,GAGGTATGTC,1.04
22,GTGGGCCTGG,0.977
23,AACACCTAAG,1.05
24,TGGTCGGGTG,0.994
25,GCTGCGTTGA,1.07
26,TTGGAGGATG,1.03

row,Sequence,switch fluorescence ratio
1,GGGAGGTTCG,1.11
2,AAACGAGGCC,1.03
3,GGGTCGCTGT,0.952
4,AGTAGACACT,1.04
5,TATAACTGAT,1.05
6,TATGTTACTT,1.03
7,TACTCAGGGC,1.04
8,GAATTTATT,1
9,TAAGAGAAGA,0.981
10,CACGGTGTTT,1.04
11,GCTCCGTGCG,1.43
12,TGAAGGATGT,1.04
13,TCAGCGAAGG,1.02
14,GATCGTCCCG,0.994
15,CGTGGAGAA,1
16,GCGTTTGATC,0.995
17,CTGAATCAT,1.01
18,CAAACCTGC,1.53
19,TCTCTAAAGC,1.24
20,CGAGTATGTT,0.964
21,TCGCTAGAGT,0.967
22,GTGGCTTCGT,1
23,TAGCCCCGCG,1
24,AATCCATTGG,1.04
25,GACCTGAATG,0.94
26,ATAACCTCGT,1.01

row,Sequence,switch fluorescence ratio
1,GGATGTGTTG,0.972
2,ACTCAAACAT,1.14
3,AAAGCGGTT,1.01
4,GGGAAAGACA,1.01
5,CGTTTATAC,2.44
6,CATAGACCTG,1
7,GACTCATTA,1.04
8,ACTTTAACAT,1.12
9,GGGACCTATG,0.967
10,ATAACAGCGA,1.03
11,AAATGGAAGT,0.983
12,TATGGGCGAG,0.982
13,TAGATAATAC,1.6
14,TATAAAAGCA,0.977
15,CCGATGCCAG,1.29
16,CCGTTTTGTC,1.06
17,TTTTTATA,1.01
18,TGAATGTCTC,0.974
19,GAGGAACCAT,1.03
20,TCACGATATT,1.17
21,CATGAATTGC,1.04
22,GAGACATCAT,0.979
23,TGAAAGTACT,1.13
24,ATGTGTGGTC,0.978
